Results: publication PMC9583166 (Frontiers in Cell and Developmental Biology, 2022)

Target: T1, SIN1-RBD-PH ( (the printed accession is a …, UniProt Q9BPZ7 266-522))
T1 construct: SIN1 (MAPKAP1) RBD-PH tandem, aa 266-522; numbers count on isoform 1 (full length); also called SIN1-RBD-PH tandem; MBP-SIN1-RBD-PH
Assay: fluorescence polarisation; increasing amounts of SIN1 protein titrated to 1 µM mGppNHp-bound GTPase; 21°C; 30 mM Tris/HCl pH 7.5, 150 mM NaCl, 5 mM MgCl2, 3 mM dithiothreitol; quadratic ligand binding equation
Conditions: both partners purified

Kd: 410 µM
B1: KRAS4A (natural protein)
chain: not shown
notes: KRAS isoform 4A, full length gene; Loaded with mant-GppNHp for fluorescence polarisation; A farnesylated KRAS4A from insect cells was used only in liposome flotation
